Several values for one entry are separate records, joined by “and”; a condition that tells them apart may be missing. Equal entries are not always repeated. Screen size: about 360,000 compounds; about 520 (0.14%) were called active. Inconclusive means that the source gave no clear call. Such entries were picked first, then a sample of the others. Calls follow the shape of the dose curve; as a rule, active = well fitted inhibition curve with a large enough effect; inconclusive = small, poorly fitted or top-dose-only effect; inactive = no such curve, though single readings can be large or run the other way. Potencies beside an inconclusive call are fits to weak or partial responses and may not hold up.
target: Rap guanine nucleotide exchange factor 3 (Homo sapiens) (UniProt O95398); experiment: qHTS for Antagonist of cAMP-regulated guanine nucleotide exchange factor 3 (EPAC1): primary screen; conditions: EPAC1 GEF assay, Rap1b-BODIPY-GDP exchange fluorescence; activity change, negative = inhibition: at 115 µM (top of the series); also: nearly all actives have a fitted effect of over 50% in size;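 as to activity change, negative = inhibition: plate controls were vehicle for no effect and positive control for full effect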
UniProt O95398, sequence (O95398 whole entry, looked up): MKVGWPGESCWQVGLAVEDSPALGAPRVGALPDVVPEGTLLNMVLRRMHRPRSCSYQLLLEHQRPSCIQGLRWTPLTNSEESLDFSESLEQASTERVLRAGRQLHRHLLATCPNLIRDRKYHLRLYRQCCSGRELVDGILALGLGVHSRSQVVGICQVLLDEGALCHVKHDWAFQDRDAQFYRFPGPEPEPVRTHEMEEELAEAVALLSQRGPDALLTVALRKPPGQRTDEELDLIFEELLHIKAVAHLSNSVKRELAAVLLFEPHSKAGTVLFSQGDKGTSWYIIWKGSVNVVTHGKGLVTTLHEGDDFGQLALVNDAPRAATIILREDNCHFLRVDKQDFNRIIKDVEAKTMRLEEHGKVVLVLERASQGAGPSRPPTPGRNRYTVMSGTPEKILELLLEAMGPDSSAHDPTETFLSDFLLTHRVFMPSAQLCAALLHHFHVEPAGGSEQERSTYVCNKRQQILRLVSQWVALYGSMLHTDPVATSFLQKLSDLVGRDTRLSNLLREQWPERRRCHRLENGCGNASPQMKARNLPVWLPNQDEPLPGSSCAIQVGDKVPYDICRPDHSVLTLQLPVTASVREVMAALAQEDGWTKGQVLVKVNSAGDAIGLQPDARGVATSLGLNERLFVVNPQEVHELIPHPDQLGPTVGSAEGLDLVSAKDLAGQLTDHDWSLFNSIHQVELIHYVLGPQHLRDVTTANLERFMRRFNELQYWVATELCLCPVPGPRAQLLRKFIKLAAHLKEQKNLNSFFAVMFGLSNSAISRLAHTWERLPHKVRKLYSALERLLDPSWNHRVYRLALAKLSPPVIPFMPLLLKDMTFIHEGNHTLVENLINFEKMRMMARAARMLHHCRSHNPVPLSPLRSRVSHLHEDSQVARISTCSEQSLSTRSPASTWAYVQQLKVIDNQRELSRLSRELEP
Potency is read from the fitted curve at half-maximal effect; tags tell the direction and shape of the fitted curve.

| Compound | Potency | activity change, negative = inhibition |
| --- | --- | --- |
| COc1ccc(NC(=O)c2cc(S(=O)(=O)N(Cc3ccccc3)c3ccccc3)ccc2Cl)cn1 | inconclusive: 89.1 µM [inhibitor, single point] |  |
| COc1ccc(C2Nc3cc(OC)ccc3-n3cccc32)cc1 (configuration not stated) |  | inactive: 12% |
| COC(=O)c1cccc(NC(=S)NCc2ccco2)c1 | inconclusive: 112 µM [inhibitor, partial curve, poor fit] |  |
| Cc1c(C(=O)c2ccc(F)cc2F)c2ccccn2c1CCC#N | inconclusive: 3.55 µM [inhibitor, full curve, poor fit] |  |
| O=C(CCCc1ccccc1)Nc1ccccc1[N+](=O)[O-] |  | inactive: -8.47% |
| O=C(NCCc1ccc(Cl)cc1)c1ccc2nc[nH]c2c1 |  | inactive: 2.16% |
| COc1ccccc1C1=NC(c2ccc(F)cc2)N=C1C (configuration not stated) | inconclusive: 89.1 µM [inhibitor, single point] |  |
| CC1=CC2=NC(=O)/C(=C\c3cccn3CCOc3ccc(C)c(C)c3)C(=N)N2O1 | inconclusive: 3.55 µM [inhibitor, full curve] |  |
| Cc1ccc(C2CC(c3cccs3)=NN2C(=O)CCl)cc1 (configuration not stated) | inconclusive: 89.1 µM [inhibitor, partial curve] |  |
| CN1CCN(C2=C(Cl)C(=O)C(c3cnc(N4CCCCC4)s3)=C(Cl)C2=O)CC1 |  | inactive: -14.8% |
| Cc1ccc(S(=O)(=O)Nc2nc(-c3ccc(F)cc3)cs2)cc1 | inconclusive: 39.8 µM [inhibitor, single point] |  |
| COc1cccc(NC(=O)CCNC(=O)c2ccccc2Cl)c1 | inconclusive: 15.8 µM [inhibitor, full curve, poor fit] |  |
| COc1cccc(-c2cc(C(=O)N3CCN(Cc4ccc5c(c4)OCO5)CC3)on2)c1 | inconclusive: 79.4 µM [inhibitor, partial curve] |  |
| CC(C)(c1cc(Br)c(O)c(Br)c1)c1cc(Br)c(O)c(Br)c1 | inconclusive: 79.4 µM [inhibitor, partial curve] |  |
| O=c1[nH]cnc2c1c(-c1ccccc1)cn2-c1ccc(Br)cc1 | inconclusive: 10 µM [inhibitor, full curve] |  |
| COc1ccc(C(=O)NC(=S)Nc2ccc(S(=O)(=O)Nc3cc(OC)ncn3)cc2)cc1 |  | inactive: -8.12% |
| CSc1nc(N)nc(SCC(=O)Nc2cccc(F)c2)c1C#N | inconclusive: 2.82 µM [inhibitor, full curve, poor fit] |  |
| O=C(CN1CCC(n2nnc3cc(C(F)(F)F)ccc32)CC1)Nc1ccc2c(c1)OCCO2 |  | inactive: -7.79% |
| CC1(C)SC(=S)N(/N=C/c2ccccc2O)C1N(O)C(=O)Nc1ccccc1 (configuration not stated) | inconclusive: 12.6 µM [inhibitor, full curve] |  |
| Cc1ccc(Cn2c(/C=C/c3ccco3)nc3ccccc32)cc1 | inconclusive: 89.1 µM [inhibitor, single point] |  |
| CC(=O)c1cccc(NC2c3ccccc3C(=O)N2Cc2ccc3c(c2)OCO3)c1 (configuration not stated) | inconclusive: 20 µM [inhibitor, full curve, poor fit] |  |

| Compound | Potency | activity change, negative = inhibition |
| --- | --- | --- |
| O=C1c2ccccc2-c2cccc(NS(=O)(=O)c3ccc(C(F)(F)F)cc3)c21 |  | inactive: 13.8% |
| COc1cc(NC2=Nc3cccc4cccc2c34)cc(OC)c1OC | inconclusive: 100 µM [inhibitor, single point] |  |
| Cc1ccnc(NC(=O)CCC(=O)N(CC(=O)NC(C)(C)C)c2ccc3c(c2)OCO3)c1 |  | inactive: -21.6% |
| COc1ccc(OCc2cc(C(=O)N(C)Cc3nnc(C)o3)no2)c(Cl)c1 |  | inactive: -6.44% |
| CCN(CC(=O)Nc1c(F)cccc1F)C(=O)/C=C/c1ccc2ccccc2n1 | inconclusive: 25.1 µM [inhibitor, full curve] |  |
| COc1ccc(NC(=O)C(=O)Nc2cccc3cccnc23)c(OC)c1 | inconclusive: 50.1 µM [inhibitor, full curve, poor fit] |  |
| COc1cccc(-c2nc(SCC(=O)Nc3nc(-c4ccccc4)c(C)s3)[nH]c(=O)c2C#N)c1 | inconclusive: 79.4 µM [inhibitor, partial curve] |  |
| [O-]/[N+](=C\c1ccncc1)c1ccc(Br)cc1 |  | inactive: -3.8% |
| COc1ccc(-n2cnc3scc(-c4ccccc4)c3c2=O)cc1 | inconclusive: 11.2 µM [inhibitor, partial curve, poor fit] |  |
| COc1ccc(CC(=O)Nc2nc(-c3cccnc3)cs2)cc1 | active: 12.6 µM |  |
| COc1ccccc1C(=O)Oc1cc(C)[nH]c(=O)c1[N+](=O)[O-] | inconclusive: 100 µM [inhibitor, single point] |  |
| COc1ccc(/C=N\NC(=O)c2cc3c(ccc4ccccc43)o2)cc1O | inconclusive: 89.1 µM [inhibitor, single point] |  |
| Cc1ccc(F)cc1NC(=O)c1sc2ncn(CC(=O)N3CCN(c4ccccn4)CC3)c(=O)c2c1C | inconclusive: 44.7 µM [inhibitor, partial curve] |  |
| Cc1cc(C)cc(OCC(=O)N(Cc2ccc(N(C)C)cc2)C2CCS(=O)(=O)C2)c1 (configuration not stated) | inconclusive: 89.1 µM [inhibitor, single point] |  |
| CCCCCc1c(-c2ccc(OC)c(OC)c2)ncn1CCc1ccccc1OC |  | inactive: -9.08% |
| COc1ccc2c(C=Nc3c(C)n(C)n(-c4ccccc4)c3=O)c(O)n(Cc3ccco3)c(=O)c2c1 | inconclusive: 50.1 µM [inhibitor, partial curve] and inconclusive: 63.1 µM [inhibitor, single point] |  |
| CC(=O)OCCCNc1cc(SCc2ccco2)c2nonc2c1[N+](=O)[O-] | inconclusive: 39.8 µM [inhibitor, full curve] |  |
| Nc1ncc2c(n1)-c1cc(Cl)ccc1SC2 | inconclusive: 10 µM [inhibitor, full curve, poor fit] |  |
| O=C1C=C(O)c2c(O)cc(O)c(O)c2C1=O | inconclusive: 3.55 µM [inhibitor, full curve] |  |
| CNC(=O)c1ccccc1Nc1ccc(SC(F)F)cc1 | inconclusive: 35.5 µM [inhibitor, partial curve] |  |
| CC(C)Cc1ccc(CN2C(C)C(=O)N(Cc3cn(Cc4ccco4)nn3)CCS2(=O)=O)cc1 (configuration not stated) | inconclusive: 56.2 µM [inhibitor, partial curve] |  |
